# Data reported in the supplement of paper PMC3334620.
# The full ranking holds about 33,000 sequences; the median of “E-score (-0.5 to 0.5)” is about -0.011, and the highest 2% start at about 0.28. Some of the results follow.
# Target: T1, Gcr1 (UniProt P07261)
# T1 sequence: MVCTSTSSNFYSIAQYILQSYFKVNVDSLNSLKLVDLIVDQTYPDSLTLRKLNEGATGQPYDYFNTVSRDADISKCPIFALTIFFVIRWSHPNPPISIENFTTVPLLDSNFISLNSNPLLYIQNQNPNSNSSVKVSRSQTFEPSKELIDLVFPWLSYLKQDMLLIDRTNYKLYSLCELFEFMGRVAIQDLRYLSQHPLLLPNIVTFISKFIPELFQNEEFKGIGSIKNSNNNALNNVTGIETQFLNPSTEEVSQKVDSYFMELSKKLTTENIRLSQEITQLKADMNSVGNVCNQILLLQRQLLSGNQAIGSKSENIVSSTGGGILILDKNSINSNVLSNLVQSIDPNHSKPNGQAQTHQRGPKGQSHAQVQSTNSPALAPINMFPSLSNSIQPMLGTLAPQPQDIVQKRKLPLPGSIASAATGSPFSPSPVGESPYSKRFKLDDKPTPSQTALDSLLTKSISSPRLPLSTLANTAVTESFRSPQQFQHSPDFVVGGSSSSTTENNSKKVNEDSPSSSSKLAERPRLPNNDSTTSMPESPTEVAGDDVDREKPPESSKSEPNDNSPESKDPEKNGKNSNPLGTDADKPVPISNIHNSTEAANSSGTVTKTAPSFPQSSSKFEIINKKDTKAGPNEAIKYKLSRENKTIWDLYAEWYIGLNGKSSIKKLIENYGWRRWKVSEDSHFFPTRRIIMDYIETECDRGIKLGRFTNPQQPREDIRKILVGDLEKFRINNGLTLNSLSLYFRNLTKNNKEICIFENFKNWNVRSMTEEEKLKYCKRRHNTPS
# Assay: PBM E-score (8-mer binding enrichment) (E-score (-0.5 to 0.5)); higher = stronger / more preferred TF binding; most listed sequences are background and not binding sites
# Conditions: protein concentration: 100 nM; construct: GST-full length
# How it was run: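 Universal all-10-mer Agilent arrays, fresh or stripped once, were converted to double-stranded form by primer extension. GST-tagged yeast transcription factors from PURExpress in vitro transcription/translation, full-length or DNA-binding domain only, were applied at about 100-200 nM and detected with fluorescent anti-GST. After masliner normalisation, the Universal PBM Analysis Suite scored each ungapped eight-base word together with its reverse complement by E-score.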
row,Sequence,PBM E-score
1,AGAATCGG,-0.0952
2,CAAAAGAC,0.0635
3,TAAAGTCA,-0.0842
4,ATGTAGCA,-0.048
5,AAGCAAGG,-0.155
6,AACCTCAG,0.0506
7,TACCAGGA,0.19
8,CTAGAGAA,-0.0591
9,CTTAGAGA,-0.0742
10,CGACTCAC,-0.161
11,CATATCCC,-0.108
12,GGAAGCAC,0.188
13,AGGGGAAT,0.341
14,CGTACCTA,-0.0466
15,TATTGCAA,0.0581
16,CGCAAAAG,-0.215
17,AAAGAGGA,0.00073
18,GTATATCA,0.178
19,GCCGAGCA,-0.124
20,AAATTAGC,0.261
21,CGGTCAGC,-0.104
22,CACCTCCC,-0.0996
23,AAACAACT,0.0884
24,GGAAGGGA,-0.135
25,ACGGCCGC,-0.0654

row,Sequence,PBM E-score
1,AGAAGGGA,-0.273
2,GGAGGTTA,-0.0486
3,AATGATAC,-0.0759
4,CACTTCAA,0.187
5,CGAGTACC,0.0157
6,AGGCGCAC,-0.0868
7,TTCTGAAA,0.151
8,ATACTGTA,-0.0195
9,CATTTGCC,-0.0181
10,ACAACCGG,0.182
11,GACGTCTA,0.0862
12,AGGGTGAA,-0.202
13,CATATTCA,0.0277
14,CGGCATGA,-0.0581
15,CTTTACCC,-0.105
16,CCTGAAAC,0.0634
17,CACTGATC,-0.142
18,CGCCCTTA,0.0154
19,CCGGACGG,-0.116
20,CTCTAGGC,0.102
21,CTGCGTGC,-0.197
22,CCCTGCTC,-0.123
23,GGAGACCA,0.156
24,GGTGACCA,0.0748
25,CGACCCTA,-0.22

row,Sequence,PBM E-score
1,CTTAAATA,0.223
2,AGTCGTAT,-0.0273
3,GCCAGTTA,0.105
4,GGCGGACA,-0.0864
5,AATTGCCG,-0.0754
6,ACTCCCCG,-0.0222
7,AAGGGGCT,0.0171
8,CAAGTGTG,-0.119
9,GTGCTTGA,0.0543
10,CCCACGCG,-0.12
11,CGAACACG,0.00554
12,GCGTATCC,0.244
13,ACCCATTA,0.224
14,CGGTACGA,-0.11
15,GGCTTGGA,-0.0903
16,CCGATGCG,-0.128
17,AGTTGGCG,0.0665
18,GATTATCA,-0.0147
19,CGACGTCG,-0.119
20,GACAGAGA,-0.246
21,GATGGTAA,-0.192
22,AATAAAAA,0.0451
23,GAGTTAGA,0.00485
24,CGAAGTCG,0.0175
25,ACCATAGG,0.00792

row,Sequence,PBM E-score
1,CGCGTTTA,0.0853
2,AAGGAGAC,-0.0163
3,CATGGGAA,0.101
4,CTTGTGGA,0.267
5,ATGTACGG,-0.07
6,CTAATTAC,-0.015
7,GGTAATAA,0.168
8,AGCAATAT,-0.0424
9,AGAGTCAA,0.0159
10,CGAAGCCG,0.285
11,ACATGCTA,0.0274
12,AGGTAGCA,-0.1
13,ATCCCGTC,0.181
14,CAGTCCTC,-0.295
15,AAGGGGGT,-0.289
16,AATGGTCG,-0.107
17,ACGGTACA,0.0448
18,ACTTTGAG,0.0468
19,AGTAAATG,-0.0661
20,AACGATCC,-0.143
21,CAAGCCGC,-0.00721
22,CCCTGCCC,-0.184
23,GCTTTGTA,0.00523
24,ATTGCATG,-0.0212
25,GCGCCGTA,0.0769

row,Sequence,PBM E-score
1,CACTGATG,0.0627
2,ATAAAGAG,-0.129
3,AAACGTGT,-0.191
4,GACGGCCA,-0.0562
5,CAAAGGAG,0.128
6,CATGACGA,0.0824
7,TCATGAGA,-0.289
8,GAAGTTAC,0.188
9,GATTGTAC,-0.131
10,CCAATACA,0.0174
11,ATCGCGAG,0.0335
12,AGTAGCAG,0.156
13,CAAGCCCG,-0.247
14,ATAAGTCA,0.0598
15,TCTGAGAA,-0.0348
16,ACTTATAA,0.091
17,AGATGGCG,-0.00188
18,GTATTTTA,0.149
19,ACCTGTGA,0.0203
20,AGGTGTGG,0.126
21,GTCTAGGA,0.0291
22,GGGAGCAC,-0.0978
23,ATCATTCG,0.122
24,TACCAGCA,0.0312
25,CACCATAA,0.0402

row,Sequence,PBM E-score
1,GATATAGC,-0.118
2,AAGTCCGA,-0.00311
3,TAAAGGGA,-0.0823
4,AGATACGG,0.0264
5,AACTGGTG,0.0802
6,AAGCTGGA,0.0849
7,CACCATCA,-0.0258
8,TAGAGGCA,0.219
9,GTTTCTCA,0.0213
10,CAAGCCCA,-0.244
11,CAATCGAA,-0.121
12,CCAGGAGC,0.264
13,GACACTCC,-0.241
14,GGGGAAAC,0.0278
15,GTATTGAC,-0.015
16,ACGACCGA,-0.119
17,ATCCAATG,0.0722
18,CTCATGGA,0.0255
19,GGGATGTA,-0.0223
20,AAGAGACC,-0.0918
21,CTGCGATA,-0.167
22,CCTTTTAA,-0.0268
23,AAGAGCCA,-0.0177
24,GACACATC,-0.072
25,CAGCTAAA,0.0206

row,Sequence,PBM E-score
1,CAACATGA,0.047
2,AGCAGTAT,-0.197
3,GGGGAGAC,0.0349
4,AACGTATT,0.0318
5,GGAAACCC,0.106
6,GCGTTAAA,0.0171
7,AAACCAAT,0.161
8,GCATATCA,-0.00628
9,GCCTTTCC,-0.231
10,CCTTTCCG,-0.0125
11,AACTCAGA,-0.0497
12,AAAATGCA,0.0508
13,ATCCACTA,0.369
14,CTCCCGAA,0.145
15,CACAGTGC,-0.145
16,CTTCACGC,0.0124
17,CCAAAATC,0.136
18,GCGCCACA,0.0894
19,AAATTTTA,0.126
20,AGACGCCC,0.259
21,CCGATTGA,-0.0126
22,CCATGGCG,0.142
23,AACGTGAT,-0.161
24,CCACTGGA,-0.0825
25,ATCCTGAG,0.171

row,Sequence,PBM E-score
1,CTTAAAGC,-0.0282
2,AATTACAG,0.283
3,CCTATCCC,-0.0228
4,ATGTGCCA,0.0443
5,AGTCCTAT,0.126
6,CAGTTCCA,0.0208
7,CACACTGC,-0.192
8,ACCCAGTC,-0.261
9,CGAAGCAA,-0.0863
10,CGCTCAAG,-0.102
11,TCCCAACA,0.122
12,CCTCAACA,-0.163
13,GTAGAAAC,-0.0106
14,AAAATTTT,0.16
15,ATTTGCTA,0.0116
16,AACCGTAG,0.0128
17,AGTCAAGA,-0.091
18,AAGGTGAA,0.0933
19,CCCGCGAG,-0.132
20,AAAATCAC,-0.0384
21,AAAGTTCG,-0.0299
22,CGAACCAA,-0.0751
23,GGACTTAA,-0.175
24,GATGTTAC,-0.0502
25,GGCATAGA,0.109

row,Sequence,PBM E-score
1,AGCCACTC,0.146
2,TCAGAGGA,-0.118
3,CGCTGCAG,0.0618
4,AAGTAGTC,0.119
5,CAAGGCCG,-0.184
6,ACGCTGCG,0.086
7,CTTACCTC,-0.124
8,ATCCCAGC,0.0877
9,CGAAAAAA,0.166
10,GGGATGGA,0.0231
11,CCGAAAGC,-0.0722
12,TAACGTGA,-0.128
13,CATGTTCG,0.0427
14,GCAGACTA,-0.204
15,AAGTGGCT,0.237
16,CGTCCCTC,-0.202
17,CCGTTTCC,0.0464
18,TGCCTCCA,-0.143
19,CAGCGTGC,-0.00684
